From the supplement of paper PMC12217912
Some of the results follow. Sequences were assembled here from the parent chain. Values near 0.05 are background.

B1: TEV protease; numbered along this chain (parent)
chain: MGESLFKGPRDYNPISSSICHLTNESDGHTTSLYGIGFGPFIITNKHLFRRNNGTLVVQSLHGVFKVKDTTTLQQHLVDGRDMIIIRMPKDFPPFPQKLKFREPQREERICLVTTNFQTKSMSSMVSDTSCTFPSGDGIFWKHWIQTKDGQCGSPLVSTRDGFIVGIHSASNFTNTNNYFTSVPKNFMELLTNQEAQQWVSGWRLNADSVLWGGHKVFMVKPEEPFQPVKEATQL

Variants of: B1
Test: raw area under fraction-flipped curve 0-4 h after induction (AUC4h, not background-subtracted), DNA-recorder readout of cleavage of the substrate (dimensionless); higher = more cleavage of the substrate by the protease variant
Conditions: temperature: 34 °C; time window: 0-4 h after rhamnose induction
Procedure: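 In vivo DNA recorder in E. coli TOP10(DE3) ΔrhaA at 34 °C. Each TEVp single-site mutant (parent TEVp 0) is paired with a single-site variant of the 7-mer TEVs (canonical ENLYFQ|S). The substrate sits between flexible linkers in a Bxb1-sfGFP-TEVs-SsrA fusion, so cleavage stabilises Bxb1 and speeds flipping of a recombination array, read by NGS. The value is the raw area under the fraction-flipped curve over 0-4 h after rhamnose induction (AUC4h), with ≥20 reads per time point. It is not background-subtracted; inactive controls average about 0.047.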
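Note: Bxb1 expression induced with 0.2% (w/v) L-rhamnose at OD600 near 0.5, cultures sampled hourly, flipped fraction per protease–substrate barcode pair counted by paired-end Illumina sequencing.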

Variant	area with substrate ENLYFAS	area with substrate ENLYFCS	area with substrate ENLYFDS	area with substrate ENLYFES	area with substrate ENLYFFS	area with substrate ENLYFGS	area with substrate ENLYFIS	area with substrate ENLYFKS	area with substrate ENLYFLS	area with substrate ENLYFMS	area with substrate ENLYFNS	area with substrate ENLYFPS	area with substrate ENLYFRS	area with substrate ENLYFSS	area with substrate ENLYFTS	area with substrate ENLYFVS	area with substrate ENLYFWS	area with substrate ENLYFYS	area with substrate ENLYFHS
MGESLFKGPRDYNPISSSICHLTNCSDGHTTSLYGIGFGPFIITNKHLFRRNNGTLVVQSLHGVFKVKDTTTLQQHLVDGRDMIIIRMPKDFPPFPQKLKFREPQREERICLVTTNFQTKSMSSMVSDTSCTFPSGDGIFWKHWIQTKDGQCGSPLVSTRDGFIVGIHSASNFTNTNNYFTSVPKNFMELLTNQEAQQWVSGWRLNADSVLWGGHKVFMVKPEEPFQPVKEATQL [E25C]	0.0565	0.0662	0.0578	0.0568	0.0631	0.0598	0.061	0.0666	0.0573	0.0644	0.0603	0.0561	0.0572	0.0473	0.0606	0.0631	0.0555	0.043	
MGESLFKGPRDYNPISSSICHLTNISDGHTTSLYGIGFGPFIITNKHLFRRNNGTLVVQSLHGVFKVKDTTTLQQHLVDGRDMIIIRMPKDFPPFPQKLKFREPQREERICLVTTNFQTKSMSSMVSDTSCTFPSGDGIFWKHWIQTKDGQCGSPLVSTRDGFIVGIHSASNFTNTNNYFTSVPKNFMELLTNQEAQQWVSGWRLNADSVLWGGHKVFMVKPEEPFQPVKEATQL [E25I]	0.0512	0.0513	0.0861	0.0617	0.0756	0.0591	0.058	0.0559	0.0445	0.0803		0.054	0.0627	0.0492	0.0735	0.0902		0.0535	
MGESLFKGPRDYNPISSSICHLTNESDGHTQSLYGIGFGPFIITNKHLFRRNNGTLVVQSLHGVFKVKDTTTLQQHLVDGRDMIIIRMPKDFPPFPQKLKFREPQREERICLVTTNFQTKSMSSMVSDTSCTFPSGDGIFWKHWIQTKDGQCGSPLVSTRDGFIVGIHSASNFTNTNNYFTSVPKNFMELLTNQEAQQWVSGWRLNADSVLWGGHKVFMVKPEEPFQPVKEATQL [T31Q]	0.0537			0.0739	0.0673	0.06	0.0564	0.0634		0.0682	0.0461	0.0715	0.0735	0.0455					
MGESLFKGPRDYNPISSSICHLTNESDGHTTCLYGIGFGPFIITNKHLFRRNNGTLVVQSLHGVFKVKDTTTLQQHLVDGRDMIIIRMPKDFPPFPQKLKFREPQREERICLVTTNFQTKSMSSMVSDTSCTFPSGDGIFWKHWIQTKDGQCGSPLVSTRDGFIVGIHSASNFTNTNNYFTSVPKNFMELLTNQEAQQWVSGWRLNADSVLWGGHKVFMVKPEEPFQPVKEATQL [S32C]	0.0611	0.051	0.0648	0.0625	0.0591	0.0687	0.054	0.0697	0.0532	0.0729	0.0595	0.0788	0.0563	0.0654	0.0588		0.0575		0.0518
MGESLFKGPRDYNPISSSICHLTNESDGHTTFLYGIGFGPFIITNKHLFRRNNGTLVVQSLHGVFKVKDTTTLQQHLVDGRDMIIIRMPKDFPPFPQKLKFREPQREERICLVTTNFQTKSMSSMVSDTSCTFPSGDGIFWKHWIQTKDGQCGSPLVSTRDGFIVGIHSASNFTNTNNYFTSVPKNFMELLTNQEAQQWVSGWRLNADSVLWGGHKVFMVKPEEPFQPVKEATQL [S32F]	0.0577	0.0609	0.0559	0.0618	0.0549	0.0597	0.0533	0.0602	0.0653	0.0474	0.0527	0.0607		0.0398	0.0751	0.0553		0.0511	0.0573
MGESLFKGPRDYNPISSSICHLTNESDGHTTKLYGIGFGPFIITNKHLFRRNNGTLVVQSLHGVFKVKDTTTLQQHLVDGRDMIIIRMPKDFPPFPQKLKFREPQREERICLVTTNFQTKSMSSMVSDTSCTFPSGDGIFWKHWIQTKDGQCGSPLVSTRDGFIVGIHSASNFTNTNNYFTSVPKNFMELLTNQEAQQWVSGWRLNADSVLWGGHKVFMVKPEEPFQPVKEATQL [S32K]	0.0634	0.0502			0.0661	0.0569	0.0528	0.0651		0.0295	0.0414	0.0496	0.044	0.0573	0.0578		0.0652		0.0578
MGESLFKGPRDYNPISSSICHLTNESDGHTTTLYGIGFGPFIITNKHLFRRNNGTLVVQSLHGVFKVKDTTTLQQHLVDGRDMIIIRMPKDFPPFPQKLKFREPQREERICLVTTNFQTKSMSSMVSDTSCTFPSGDGIFWKHWIQTKDGQCGSPLVSTRDGFIVGIHSASNFTNTNNYFTSVPKNFMELLTNQEAQQWVSGWRLNADSVLWGGHKVFMVKPEEPFQPVKEATQL [S32T]	0.0613	0.0584		0.0776	0.0634		0.0584	0.058		0.0754	0.0656	0.0643	0.0536	0.062	0.0645	0.0579	0.065	0.0552	
MGESLFKGPRDYNPISSSICHLTNESDGHTTVLYGIGFGPFIITNKHLFRRNNGTLVVQSLHGVFKVKDTTTLQQHLVDGRDMIIIRMPKDFPPFPQKLKFREPQREERICLVTTNFQTKSMSSMVSDTSCTFPSGDGIFWKHWIQTKDGQCGSPLVSTRDGFIVGIHSASNFTNTNNYFTSVPKNFMELLTNQEAQQWVSGWRLNADSVLWGGHKVFMVKPEEPFQPVKEATQL [S32V]	0.0559	0.068		0.0668	0.0801	0.0607	0.0367	0.0595	0.0605	0.0653	0.0467	0.0598		0.0621	0.0574	0.0532	0.0535	0.0462	0.06
MGESLFKGPRDYNPISSSICHLTNESDGHTTSSYGIGFGPFIITNKHLFRRNNGTLVVQSLHGVFKVKDTTTLQQHLVDGRDMIIIRMPKDFPPFPQKLKFREPQREERICLVTTNFQTKSMSSMVSDTSCTFPSGDGIFWKHWIQTKDGQCGSPLVSTRDGFIVGIHSASNFTNTNNYFTSVPKNFMELLTNQEAQQWVSGWRLNADSVLWGGHKVFMVKPEEPFQPVKEATQL [L33S]	0.0654	0.0547	0.049		0.0661	0.0495	0.0527	0.0584		0.0611	0.074	0.051	0.0595	0.0664			0.0447		0.063
MGESLFKGPRDYNPISSSICHLTNESDGHTTSLLGIGFGPFIITNKHLFRRNNGTLVVQSLHGVFKVKDTTTLQQHLVDGRDMIIIRMPKDFPPFPQKLKFREPQREERICLVTTNFQTKSMSSMVSDTSCTFPSGDGIFWKHWIQTKDGQCGSPLVSTRDGFIVGIHSASNFTNTNNYFTSVPKNFMELLTNQEAQQWVSGWRLNADSVLWGGHKVFMVKPEEPFQPVKEATQL [Y34L]	0.0559			0.0786	0.0691		0.0191	0.0376		0.0641		0.092	0.0815		0.06		0.0501		
MGESLFKGPRDYNPISSSICHLTNESDGHTTSLYGPGFGPFIITNKHLFRRNNGTLVVQSLHGVFKVKDTTTLQQHLVDGRDMIIIRMPKDFPPFPQKLKFREPQREERICLVTTNFQTKSMSSMVSDTSCTFPSGDGIFWKHWIQTKDGQCGSPLVSTRDGFIVGIHSASNFTNTNNYFTSVPKNFMELLTNQEAQQWVSGWRLNADSVLWGGHKVFMVKPEEPFQPVKEATQL [I36P]	0.0203	0.0419		0.0364	0.0463		0.031	0.0348		0.0513	0.0138	0.0384	0.0417	0.0344	0.0309	0.0384	0.0377		
MGESLFKGPRDYNPISSSICHLTNESDGHTTSLYGIQFGPFIITNKHLFRRNNGTLVVQSLHGVFKVKDTTTLQQHLVDGRDMIIIRMPKDFPPFPQKLKFREPQREERICLVTTNFQTKSMSSMVSDTSCTFPSGDGIFWKHWIQTKDGQCGSPLVSTRDGFIVGIHSASNFTNTNNYFTSVPKNFMELLTNQEAQQWVSGWRLNADSVLWGGHKVFMVKPEEPFQPVKEATQL [G37Q]	0.0652	0.0517	0.0484	0.0498		0.0569	0.0459	0.0554		0.0678	0.0477	0.0523	0.0513	0.0601		0.0564	0.0642	0.0542	0.0535
MGESLFKGPRDYNPISSSICHLTNESDGHTTSLYGIGRGPFIITNKHLFRRNNGTLVVQSLHGVFKVKDTTTLQQHLVDGRDMIIIRMPKDFPPFPQKLKFREPQREERICLVTTNFQTKSMSSMVSDTSCTFPSGDGIFWKHWIQTKDGQCGSPLVSTRDGFIVGIHSASNFTNTNNYFTSVPKNFMELLTNQEAQQWVSGWRLNADSVLWGGHKVFMVKPEEPFQPVKEATQL [F38R]	0.0533	0.0527	0.0481		0.0519		0.055	0.0566	0.0369	0.0509	0.0694	0.0528		0.0545	0.0447	0.0047	0.0747		0.0565
MGESLFKGPRDYNPISSSICHLTNESDGHTTSLYGIGFGMFIITNKHLFRRNNGTLVVQSLHGVFKVKDTTTLQQHLVDGRDMIIIRMPKDFPPFPQKLKFREPQREERICLVTTNFQTKSMSSMVSDTSCTFPSGDGIFWKHWIQTKDGQCGSPLVSTRDGFIVGIHSASNFTNTNNYFTSVPKNFMELLTNQEAQQWVSGWRLNADSVLWGGHKVFMVKPEEPFQPVKEATQL [P40M]	0.0613	0.0536					0.0618	0.0395	0.0467	0.0641	0.0669		0.0668		0.0468	0.0345	0.0547	0.0543	
MGESLFKGPRDYNPISSSICHLTNESDGHTTSLYGIGFGPDIITNKHLFRRNNGTLVVQSLHGVFKVKDTTTLQQHLVDGRDMIIIRMPKDFPPFPQKLKFREPQREERICLVTTNFQTKSMSSMVSDTSCTFPSGDGIFWKHWIQTKDGQCGSPLVSTRDGFIVGIHSASNFTNTNNYFTSVPKNFMELLTNQEAQQWVSGWRLNADSVLWGGHKVFMVKPEEPFQPVKEATQL [F41D]	0.047	0.0602	0.0246		0.0531	0.0439	0.0471	0.0632	0.0393	0.0607		0.0519	0.0491	0.056	0.0263	0.0524	0.0532		0.0599
MGESLFKGPRDYNPISSSICHLTNESDGHTTSLYGIGFGPFSITNKHLFRRNNGTLVVQSLHGVFKVKDTTTLQQHLVDGRDMIIIRMPKDFPPFPQKLKFREPQREERICLVTTNFQTKSMSSMVSDTSCTFPSGDGIFWKHWIQTKDGQCGSPLVSTRDGFIVGIHSASNFTNTNNYFTSVPKNFMELLTNQEAQQWVSGWRLNADSVLWGGHKVFMVKPEEPFQPVKEATQL [I42S]	0.0448	0.045		0.0525	0.0583	0.0597	0.0424		0.0485	0.0558	0.0471	0.0405	0.0424	0.0548	0.0376	0.0398		0.0424	0.0731
MGESLFKGPRDYNPISSSICHLTNESDGHTTSLYGIGFGPFIIRNKHLFRRNNGTLVVQSLHGVFKVKDTTTLQQHLVDGRDMIIIRMPKDFPPFPQKLKFREPQREERICLVTTNFQTKSMSSMVSDTSCTFPSGDGIFWKHWIQTKDGQCGSPLVSTRDGFIVGIHSASNFTNTNNYFTSVPKNFMELLTNQEAQQWVSGWRLNADSVLWGGHKVFMVKPEEPFQPVKEATQL [T44R]	0.0361	0.0478	0.0417	0.0545	0.0487		0.0365	0.0528	0.0601	0.0458	0.0424	0.0308	0.0341	0.0094	0.0504		0.0528	0.0213	0.0594
